The values that follow come from a collection of fitness landscapes (doi:10.1126/science.1257360).

B1: PhoQ; a variant is named by its letters at X, in order, P23837 (parent)
chain: MKKLLRLFFPLSLRVRFLLATAAVVLVLSLAYGMVALIGYSVSFDKTTFRLLRGESNLFYTLAKWENNKLHVELPENIDKQSPTMTLIYDENGQLLWAQRDVPWLMKMIQPDWLKSNGFHEIEADVNDTSLLLSGDHSIQQQLQEVREDDDDAEMTHSVAVNVYPATSRMPKLTIVVVDTIPVELKSSYMVWSWFIYVLSANLLLVIPLLWVAAWWSLRPIEALAKEVRELEEHNRELLNPATTRELTSLVRNLNRLLKSERERYDKYRTTLTDLTHSLKTPLXXLQXXLRSLRSEKMSVSDAEPVMLEQISRISQQIGYYLHRASMRGGTLLSRELHPVAPLLDNLTSALNKVYQRKGVNISLDISPEISFVGEQNDFVEVMGNVLDNACKYCLEFVEISARQTDEHLYIVVEDDGPGIPLSKREVIFDRGQRVDTLRPGQGVGLAVAREITEQYEGKIVAGESMLGGARMEVIFGRQHSAPKDE

Some of the results follow.

The variants in the test derive from B1. In words: enrichment ratio after two sorts for PhoP signalling (ratio (wild type AVST 3.29)); higher = more functional. The following applies: with PhoP (E. coli).
As for DRDL, the enrichment ratio is ≤ 0.25. The same measure for VDDH: ≤ 0.25; for QRWC: ≤ 0.25; for AQCD: 42.7. The same measure for MDYW: ≤ 0.25. The same measure for DYDI: ≤ 0.25. With YNVG, the enrichment ratio is ≤ 0.25.

As to HVTW, the enrichment ratio is ≤ 0.25. The same measure for LYPV: ≤ 0.25; for FWID: ≤ 0.25; for RCVM: ≤ 0.25.

Consider RHVF, for which the enrichment ratio is ≤ 0.25. Turning to QFSP, the enrichment ratio worked out at 0.575. SKRG: the enrichment ratio is ≤ 0.25.

As for EHQL, the enrichment ratio was ≤ 0.25. The same measure for HDVM: ≤ 0.25; for IHSM: ≤ 0.25; for KSYQ: ≤ 0.25. The same measure for REWN: ≤ 0.25; for DPQN: ≤ 0.25; for NQCW: ≤ 0.25.

On to EFYG, for which the enrichment ratio was ≤ 0.25. The same measure for TTAM: 17.5; for WFTY: ≤ 0.25; for TYYN: ≤ 0.25. As to DKRP, the enrichment ratio was ≤ 0.25. Regarding LCQS, the enrichment ratio is ≤ 0.25.

Turning to NNSR, the enrichment ratio is ≤ 0.25. Take TCRV: the enrichment ratio was determined as 1.29. The same measure for YKVI: ≤ 0.25; for LRIM: ≤ 0.25. The same measure for VVFS: ≤ 0.25; for TIEG: 11.8. The same measure for DTSQ: ≤ 0.25; for KMNP: ≤ 0.25. For LNFN, the enrichment ratio is ≤ 0.25. The same measure for PSAD: ≤ 0.25; for VPGH: ≤ 0.25. For the variant QLPT, the enrichment ratio is ≤ 0.25. On to YVHW, for which the enrichment ratio is ≤ 0.25. The same measure for YRDP: ≤ 0.25; for FCPI: ≤ 0.25.

On to VPGQ, for which the enrichment ratio is ≤ 0.25.

Take VAKW: the enrichment ratio is ≤ 0.25. The same measure for WKHS: ≤ 0.25; for TGGV: 4.98. The same measure for DHHF: ≤ 0.25; for AEDV: ≤ 0.25; for HCIF: ≤ 0.25.

For the variant PQHV, the enrichment ratio was ≤ 0.25. The same measure for TILS: 1.41; for MILQ: 14; for EFIE: ≤ 0.25. The same measure for LLNC: ≤ 0.25; for PRRT: ≤ 0.25.

NFKV: the enrichment ratio was ≤ 0.25. As for YVVC, the enrichment ratio is ≤ 0.25. The same measure for EADL: ≤ 0.25. Take EFQF: the enrichment ratio is ≤ 0.25.

Regarding YLTT, the enrichment ratio is ≤ 0.25. The same measure for YIAP: ≤ 0.25; for VSPD: ≤ 0.25. The same measure for SCNG: 2.01; for TFEE: ≤ 0.25; for WRCR: ≤ 0.25. The same measure for WSYL: ≤ 0.25; for DQRS: ≤ 0.25. For NVPF, the enrichment ratio was ≤ 0.25. The same measure for KMWA: ≤ 0.25. The same measure for EHSI: ≤ 0.25. The same measure for RVGA: ≤ 0.25; for GSEL: ≤ 0.25. Consider YNDK, for which the enrichment ratio was ≤ 0.25. The same measure for HRGE: ≤ 0.25. The same measure for QRPE: ≤ 0.25; for WRYR: ≤ 0.25.

For the variant DIAR, the enrichment ratio is ≤ 0.25.

As to THFM, the enrichment ratio is ≤ 0.25. The same measure for RKGT: ≤ 0.25. The same measure for QTMV: ≤ 0.25; for TWRG: ≤ 0.25; for FKKE: ≤ 0.25. The same measure for RPYR: ≤ 0.25; for SWEW: ≤ 0.25; for AGQP: ≤ 0.25.

Turning to HITV, the enrichment ratio was ≤ 0.25.

In the case of FFRW, the enrichment ratio is ≤ 0.25. The same measure for DEGG: ≤ 0.25; for NSWC: ≤ 0.25.

Turning to VSWC, the enrichment ratio is ≤ 0.25.

KHRT: the enrichment ratio is ≤ 0.25. The same measure for WHRP: ≤ 0.25; for SLIE: ≤ 0.25. The same measure for MNWY: ≤ 0.25. The same measure for FTKP: ≤ 0.25. On to LVDC, for which the enrichment ratio is ≤ 0.25.

Turning to FYCT, the enrichment ratio is ≤ 0.25. The same measure for QRHH: ≤ 0.25; for WDND: ≤ 0.25. The same measure for ESYF: ≤ 0.25; for PQFL: ≤ 0.25. On to CGHH, for which the enrichment ratio was ≤ 0.25. The same measure for ICMF: ≤ 0.25; for HWHH: ≤ 0.25. The same measure for HLWR: ≤ 0.25; for GNTM: 1.94; for FMTW: ≤ 0.25. Consider MPGW, for which the enrichment ratio was ≤ 0.25. The same measure for WGGK: ≤ 0.25; for FVMN: 0.972. The same measure for HNPG: ≤ 0.25; for AEVC: 14.6.

For WTHN, the enrichment ratio was ≤ 0.25.

On to MQVW, for which the enrichment ratio was ≤ 0.25.

As to DYTM, the enrichment ratio is ≤ 0.25. The same measure for KGAC: ≤ 0.25. In the case of VCCW, the enrichment ratio was ≤ 0.25.

For the variant RYES, the enrichment ratio was ≤ 0.25. The same measure for PSRC: ≤ 0.25; for IHDC: ≤ 0.25; for VGPL: ≤ 0.25. The same measure for QESQ: ≤ 0.25; for ANDR: ≤ 0.25.

Turning to NTAD, the enrichment ratio was ≤ 0.25. The same measure for DAQG: ≤ 0.25; for IVPM: ≤ 0.25.

With YTCE, the enrichment ratio was ≤ 0.25. Regarding RALI, the enrichment ratio was ≤ 0.25.

Take ILLD: the enrichment ratio was ≤ 0.25. The same measure for YCMP: ≤ 0.25; for GDWC: ≤ 0.25; for SIQS: 2.2. The same measure for QPTS: ≤ 0.25; for YYTG: ≤ 0.25; for AHTL: 6.56. The same measure for PWIL: ≤ 0.25; for HKLW: ≤ 0.25; for FHAG: ≤ 0.25. Take DYQD: the enrichment ratio was ≤ 0.25.

Turning to KVLK, the enrichment ratio is ≤ 0.25. The same measure for FESM: 1.67; for YKVD: ≤ 0.25.

As for RTPR, the enrichment ratio is ≤ 0.25.

MEGK: the enrichment ratio is ≤ 0.25. The same measure for EASK: ≤ 0.25; for KQCW: ≤ 0.25. The same measure for TVAV: 6.64.

Consider QIQL, for which the enrichment ratio was ≤ 0.25.

With KTKS, the enrichment ratio is ≤ 0.25. The same measure for MCDS: ≤ 0.25; for METI: 6.64. The same measure for LRAA: ≤ 0.25; for RPSK: ≤ 0.25.
